# Assay results published in the supplement of paper PMC3334620.
# The full ranking holds about 33,000 sequences; the median of “E-score (-0.5 to 0.5)” is about -0.032, and the highest 2% start at about 0.36. The list shows a part of the results.
# Biological target: T1, Sko1 (UniProt Q02100)
# T1 sequence: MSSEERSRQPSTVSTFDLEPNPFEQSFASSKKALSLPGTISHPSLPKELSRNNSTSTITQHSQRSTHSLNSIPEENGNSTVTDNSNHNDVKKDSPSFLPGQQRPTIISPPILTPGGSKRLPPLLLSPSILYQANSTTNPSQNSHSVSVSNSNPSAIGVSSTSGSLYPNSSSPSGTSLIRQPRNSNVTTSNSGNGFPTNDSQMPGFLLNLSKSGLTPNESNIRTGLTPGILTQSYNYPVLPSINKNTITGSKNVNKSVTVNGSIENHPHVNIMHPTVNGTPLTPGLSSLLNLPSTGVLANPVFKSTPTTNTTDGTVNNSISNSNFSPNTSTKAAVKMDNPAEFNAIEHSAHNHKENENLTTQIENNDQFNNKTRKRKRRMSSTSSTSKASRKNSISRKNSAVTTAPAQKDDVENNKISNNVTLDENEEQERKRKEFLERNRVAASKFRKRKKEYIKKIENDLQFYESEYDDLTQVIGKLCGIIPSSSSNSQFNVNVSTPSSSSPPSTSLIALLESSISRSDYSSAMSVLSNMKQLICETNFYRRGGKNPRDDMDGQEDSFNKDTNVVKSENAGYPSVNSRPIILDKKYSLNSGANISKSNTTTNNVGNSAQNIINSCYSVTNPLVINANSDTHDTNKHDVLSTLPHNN
# Experiment: PBM E-score (8-mer binding enrichment) (E-score (-0.5 to 0.5)); higher = stronger / more preferred TF binding; most listed sequences are background and not binding sites
# Conditions: protein concentration: 200 nM; construct: GST-full length
# Method in brief: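 Each ungapped eight-base word and its reverse complement, pooled, received an E-score from the Universal PBM Analysis Suite. Underlying scans, normalised with masliner, recorded fluorescent anti-GST bound to GST-tagged yeast transcription factors. These were applied at about 100-200 nM to universal all-10-mer Agilent arrays double-stranded by primer extension.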
row,Sequence,PBM E-score
1,CGCTTGAC,-0.0256
2,CTCTGAAC,-0.0539
3,CGGATGAC,0.315
4,ATTCAGGG,-0.0228
5,CGCATTGA,0.187
6,GGTGAAGA,-0.21
7,ACTAGCGG,-0.259
8,ATCGGACG,-0.0901
9,CAAGGAAA,-0.222
10,TAGAGTCA,-0.0742
11,ATGCTCCC,-0.163
12,GTTTTCCA,0.248
13,TATGTTAA,0.206
14,GGCCCTGA,-0.187
15,CGCGACTA,-0.0528
16,GACGAGAC,0.00066
17,CGCTCTAA,0.104
18,AATGTCAT,0.31
19,AAAAGACT,-0.257
20,ATACAGCA,0.121
21,TACTTGGA,0.23
22,CAGCCGGG,-0.162
23,GTGACGGA,0.174
24,CGCAGGAC,-0.0992

row,Sequence,PBM E-score
1,CATATATG,0.292
2,TAGGCTGA,-0.0934
3,TAGGGCCA,-0.202
4,AAAAGTTG,-0.0173
5,CAAACTCA,0.0745
6,ACCGTCAG,-0.0341
7,CGCCAATC,-0.0362
8,CCCACTCG,-0.339
9,ATTAGTTC,0.201
10,ACCTTTCC,-0.271
11,CGAGGGGC,-0.273
12,ACCTTTTG,-0.246
13,CTCCAGTC,-0.0948
14,AGTGAGGG,-0.23
15,CGGAAACG,0.0984
16,ACGGCATA,0.0529
17,ATCCACTC,-0.187
18,TCGAGCCA,-0.0914
19,AACAGTTG,0.0405
20,ATTAGCGC,0.076
21,ACCCGCCT,-0.125
22,AAACGTAG,0.393
23,AAGGACTC,-0.157
24,GCAATTAA,0.0783

row,Sequence,PBM E-score
1,AAGGAGAG,-0.225
2,CAAACATA,-0.0407
3,ATGTTCGG,-0.225
4,ACGTGATC,0.432
5,CTATACTA,0.047
6,AGACCAAA,-0.0522
7,CTTCGTAC,0.0189
8,ACCTAACT,0.0945
9,AGGTGAAC,0.0479
10,GATGTGGA,0.0944
11,GAATCCGA,-0.0433
12,CTACAAAC,-0.037
13,CCTCAACG,-0.108
14,GACCCCCA,-0.416
15,ATCATTCC,0.0521
16,CAGCATTA,0.0417
17,AAGCACAA,0.0339
18,CTAGCCAG,-0.193
19,AATCTCGC,0.16
20,AACTTTTG,0.117
21,GGCTATAC,-0.155
22,AAAGCTAA,0.122
23,GGACCTGA,-0.26
24,ATGCAGGG,-0.292

row,Sequence,PBM E-score
1,AGGTCCGC,-0.377
2,CGATCGCA,0.11
3,CGCTGGGC,-0.255
4,ACAAATAA,0.211
5,CCACTCGC,-0.25
6,TACGCACA,0.401
7,CAGTCGGG,0.0527
8,ATCCGTTA,0.271
9,AGTAATCA,0.0126
10,AGGATGCA,-0.106
11,ACGTCCTA,0.317
12,GAACGCAC,0.202
13,CAAAGACA,0.0981
14,TATTCGGA,-0.0522
15,CGACCGAC,-0.012
16,TGGGCGAA,-0.1
17,GAACCGGA,-0.0591
18,ATATCCGG,-0.121
19,CCTGGTTA,-0.0989
20,ACAAATTG,0.0263
21,TCTCAGCA,-0.155
22,GTACGCGA,0.277
